31 molecules from PMC9911399, “Two distinct binding modes provide the RNA-binding protein RbFox with extraordinary sequence specificity” can be followed below.

T1: RBFOX1 RRM (Homo sapiens, UniProt Q9NWB1 109-208)
T1 sequence: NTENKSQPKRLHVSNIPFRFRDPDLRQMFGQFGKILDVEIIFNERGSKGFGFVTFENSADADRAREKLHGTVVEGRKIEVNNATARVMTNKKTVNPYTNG

B1: CCUAAUG (DNA:RNA)
RNA: GGGAGACCGGAAUUCAGAUUGUCCCCUAAUGUUAAAUCCCGUCGUAGCCACCA
DNA 1: CAATCTGAATTCCGGTCTCCC
DNA 2: TGGTGGCTACGACGGGATT
B2: AGAUCGG (DNA:RNA)
RNA: B1 RNA with C25A, C26G, U27A, A28U, A29C, U30G
DNA 1: CAATCTGAATTCCGGTCTCCC
DNA 2: TGGTGGCTACGACGGGATT
B3: GGGCUGC (DNA:RNA)
RNA: GGGAGACCGGAAUUCAGAUUGUCCGGGCUGCUUAAAUCCCGUCGUAGCCACCA
DNA 1: CAATCTGAATTCCGGTCTCCC
DNA 2: TGGTGGCTACGACGGGATT
B4: UUAAGAA (DNA:RNA)
RNA: B1 RNA with C25U, C26U, U27A, A29G, U30A, G31A
DNA 1: CAATCTGAATTCCGGTCTCCC
DNA 2: TGGTGGCTACGACGGGATT
B5: CUGUAUU (DNA:RNA)
RNA: B1 RNA with C26U, U27G, A28U, G31U
DNA 1: CAATCTGAATTCCGGTCTCCC
DNA 2: TGGTGGCTACGACGGGATT
B6: UAAGUGU (DNA:RNA)
RNA: B3 RNA with G25U, G26A, G27A, C28G, C31U
DNA 1: CAATCTGAATTCCGGTCTCCC
DNA 2: TGGTGGCTACGACGGGATT
B7: GUGAUAA (DNA:RNA)
RNA: B3 RNA with G26U, C28A, G30A, C31A
DNA 1: CAATCTGAATTCCGGTCTCCC
DNA 2: TGGTGGCTACGACGGGATT
B8: CGGAGCG (DNA:RNA)
RNA: B1 RNA with C26G, U27G, A29G, U30C
DNA 1: CAATCTGAATTCCGGTCTCCC
DNA 2: TGGTGGCTACGACGGGATT
B9: GUGGUGA (DNA:RNA)
RNA: B3 RNA with G26U, C28G, C31A
DNA 1: CAATCTGAATTCCGGTCTCCC
DNA 2: TGGTGGCTACGACGGGATT
B10: AGUGAGG (DNA:RNA)
RNA: B1 RNA with C25A, C26G, A28G, U30G
DNA 1: CAATCTGAATTCCGGTCTCCC
DNA 2: TGGTGGCTACGACGGGATT
B11: ACAAGAG (DNA:RNA)
RNA: B1 RNA with C25A, U27A, A29G, U30A
DNA 1: CAATCTGAATTCCGGTCTCCC
DNA 2: TGGTGGCTACGACGGGATT
B12: UUGCGUA (DNA:RNA)
RNA: B3 RNA with G25U, G26U, U29G, G30U, C31A
DNA 1: CAATCTGAATTCCGGTCTCCC
DNA 2: TGGTGGCTACGACGGGATT
B13: CUGCACG (DNA:RNA)
RNA: B1 RNA with C26U, U27G, A28C, U30C
DNA 1: CAATCTGAATTCCGGTCTCCC
DNA 2: TGGTGGCTACGACGGGATT
B14: UGAGUUU (DNA:RNA)
RNA: B3 RNA with G25U, G27A, C28G, G30U, C31U
DNA 1: CAATCTGAATTCCGGTCTCCC
DNA 2: TGGTGGCTACGACGGGATT
B15: UAGCGAG (DNA:RNA)
RNA: B3 RNA with G25U, G26A, U29G, G30A, C31G
DNA 1: CAATCTGAATTCCGGTCTCCC
DNA 2: TGGTGGCTACGACGGGATT
B16: AUGUUGU (DNA:RNA)
RNA: B3 RNA with G25A, G26U, C28U, C31U
DNA 1: CAATCTGAATTCCGGTCTCCC
DNA 2: TGGTGGCTACGACGGGATT
B17: GACAACU (DNA:RNA)
RNA: B1 RNA with C25G, C26A, U27C, U30C, G31U
DNA 1: CAATCTGAATTCCGGTCTCCC
DNA 2: TGGTGGCTACGACGGGATT
B18: CCUUCAU (DNA:RNA)
RNA: B1 RNA with A28U, A29C, U30A, G31U
DNA 1: CAATCTGAATTCCGGTCTCCC
DNA 2: TGGTGGCTACGACGGGATT
B19: GCCCUAA (DNA:RNA)
RNA: B3 RNA with G26C, G27C, G30A, C31A
DNA 1: CAATCTGAATTCCGGTCTCCC
DNA 2: TGGTGGCTACGACGGGATT
B20: UCGAGAG (DNA:RNA)
RNA: B1 RNA with C25U, U27G, A29G, U30A
DNA 1: CAATCTGAATTCCGGTCTCCC
DNA 2: TGGTGGCTACGACGGGATT
B21: UAGAUGA (DNA:RNA)
RNA: B3 RNA with G25U, G26A, C28A, C31A
DNA 1: CAATCTGAATTCCGGTCTCCC
DNA 2: TGGTGGCTACGACGGGATT
B22: AACUUUU (DNA:RNA)
RNA: B1 RNA with C25A, C26A, U27C, A28U, A29U, G31U
DNA 1: CAATCTGAATTCCGGTCTCCC
DNA 2: TGGTGGCTACGACGGGATT
B23: UAAUUCU (DNA:RNA)
RNA: B3 RNA with G25U, G26A, G27A, C28U, G30C, C31U
DNA 1: CAATCTGAATTCCGGTCTCCC
DNA 2: TGGTGGCTACGACGGGATT
B24: GUGUGUU (DNA:RNA)
RNA: B3 RNA with G26U, C28U, U29G, G30U, C31U
DNA 1: CAATCTGAATTCCGGTCTCCC
DNA 2: TGGTGGCTACGACGGGATT
B25: AUUACAU (DNA:RNA)
RNA: B1 RNA with C25A, C26U, A29C, U30A, G31U
DNA 1: CAATCTGAATTCCGGTCTCCC
DNA 2: TGGTGGCTACGACGGGATT
B26: CCAGUCG (DNA:RNA)
RNA: B1 RNA with U27A, A28G, A29U, U30C
DNA 1: CAATCTGAATTCCGGTCTCCC
DNA 2: TGGTGGCTACGACGGGATT
B27: CCGUAGG (DNA:RNA)
RNA: B1 RNA with U27G, A28U, U30G
DNA 1: CAATCTGAATTCCGGTCTCCC
DNA 2: TGGTGGCTACGACGGGATT
B28: UGUGGCC (DNA:RNA)
RNA: B3 RNA with G25U, G27U, C28G, U29G, G30C
DNA 1: CAATCTGAATTCCGGTCTCCC
DNA 2: TGGTGGCTACGACGGGATT
B29: UGCUGGG (DNA:RNA)
RNA: B3 RNA with G25U, G27C, C28U, U29G, C31G
DNA 1: CAATCTGAATTCCGGTCTCCC
DNA 2: TGGTGGCTACGACGGGATT
B30: CGCUAAU (DNA:RNA)
RNA: B1 RNA with C26G, U27C, A28U, U30A, G31U
DNA 1: CAATCTGAATTCCGGTCTCCC
DNA 2: TGGTGGCTACGACGGGATT
B31: CUGACUC (DNA:RNA)
RNA: B1 RNA with C26U, U27G, A29C, G31C
DNA 1: CAATCTGAATTCCGGTCTCCC
DNA 2: TGGTGGCTACGACGGGATT

Changes are numbered by the printed parent chain; changes in the protein carry UniProt numbers. The list shows a part of the results.

This assay has as its target T1, RBFOX1 RRM. Description: EMSA; HiTS-Eq, 1 nM pool, 10 min; buffer printed only for the single-RNA assays: 10 mM Tris pH 7.5, 150 mM NaCl, 3.4 mM EDTA, 0.001% NP-40, 30 C. The following applies: tags: His6 N-terminal (pET28a); label: 5' 32P. Summed up: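 Purified RbFox RRM, wild type or mutant, was incubated for 10 min in 50 µL with 1 nM of a 5′-radiolabelled RNA pool carrying 7 randomized nucleotides, whose flanks were annealed to DNA oligonucleotides, over a series of increasing protein concentrations. Unbound RNA was resolved on 8% native PAGE, cut out, reverse-transcribed, barcoded by PCR and sequenced on an Illumina HiSeq 2500. Relative association constants were derived from changes in read counts for each RNA species versus the control reaction and normalised to the cognate motif.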
In the case of B1, the binding signal was 0.00839 KA relative to UGCAUGU.

On to B2, for which the binding signal was 0.014 KA relative to UGCAUGU.

Consider B3, for which the binding signal was 0.0228 KA relative to UGCAUGU.

In the case of B4, the binding signal is 0.0137 KA relative to UGCAUGU.

Turning to B5, the binding signal was 0.00801 KA relative to UGCAUGU.

Take B6: the binding signal was 0.0159 KA relative to UGCAUGU.

Take B7: the binding signal is 0.00986 KA relative to UGCAUGU.

For B8, the binding signal is 0.0221 KA relative to UGCAUGU.

For B9, the binding signal was 0.0177 KA relative to UGCAUGU.

In the case of B10, the binding signal was 0.0155 KA relative to UGCAUGU.

For B11, the binding signal is 0.00481 KA relative to UGCAUGU.

For B12, the binding signal was 0.0144 KA relative to UGCAUGU.

B13: the binding signal was 0.616 KA relative to UGCAUGU.

Take B14: the binding signal was 0.0172 KA relative to UGCAUGU.

As to B15, the binding signal is 0.00956 KA relative to UGCAUGU.

B16: the binding signal is 0.0143 KA relative to UGCAUGU.

With B17, the binding signal is 0.000954 KA relative to UGCAUGU.

Turning to B18, the binding signal was 0.00318 KA relative to UGCAUGU.

Take B19: the binding signal is 0.00697 KA relative to UGCAUGU.

Take B20: the binding signal was 0.0125 KA relative to UGCAUGU.

Regarding B21, the binding signal is 0.0121 KA relative to UGCAUGU.

For the molecule B22, the binding signal was 0.00145 KA relative to UGCAUGU.

On to B23, for which the binding signal was 0.00513 KA relative to UGCAUGU.

Regarding B24, the binding signal is 0.0201 KA relative to UGCAUGU.

Turning to B25, the binding signal is 0.00244 KA relative to UGCAUGU.

B26: the binding signal was 0.00919 KA relative to UGCAUGU.

As to B27, the binding signal was 0.00826 KA relative to UGCAUGU.

Consider B28, for which the binding signal was 0.0234 KA relative to UGCAUGU.

For B29, the binding signal was 0.0153 KA relative to UGCAUGU.

For the molecule B30, the binding signal was 0.00469 KA relative to UGCAUGU.

Regarding B31, the binding signal is 0.0113 KA relative to UGCAUGU.
